Measured values as given in the supplement of paper PMC10369915.
This is one part of the list. No stated cut-off is given here; in the data, active = 3.2 or more and inactive = the rest. The signal is at background level for most entries.

Tests used:
Assay in all cases: enrichment score (SH2-bound / input frequency) (ratio); bacterial display of known human phosphotyrosine sites (pTyr-Var adds point mutants) read by sequencing; higher = stronger binding; tyrosines were phosphorylated by kinases first
Details in all cases: peptide library: pTyr-Var
[1] = biological target: SHP2 C-SH2 domain E139D
[2] = biological target: SHP2 C-SH2 domain wild-type
[3] = biological target: SHP2 N-SH2 domain L43F
[4] = biological target: SHP2 N-SH2 domain T42A
[5] = biological target: SHP2 N-SH2 domain T52S
[6] = biological target: SHP2 N-SH2 domain wild-type
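Further: displayed peptides selected on beads carrying the immobilized SH2 domain, with library peptides lacking any tyrosine serving as negative controls.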

Binder	enrichment score [1]	enrichment score [2]	enrichment score [3]	enrichment score [4]	enrichment score [5]	enrichment score [6]
LVPAWYIGFLC [KCNQ2_Y237_T234P]	inactive: 1.08	inactive: 1.23	inactive: 1.16	inactive: 0.85	inactive: 0.903	inactive: 1.1
PPNSPYIGSSP [KCNT1_Y740]	inactive: 0.596	inactive: 0.472	inactive: 0.508	inactive: 0.486	inactive: 0.449	inactive: 0.658
PPNSPYMGSSP [KCNT1_Y740_I741M]	inactive: 0.423	inactive: 0.554	inactive: 0.525	inactive: 0.715	inactive: 0.633	inactive: 0.345
SAEEDYKADAK [KCNT1_Y876_M877K]	inactive: 0.4	inactive: 0.309	inactive: 0.597	inactive: 0.402	inactive: 0.426	inactive: 0.451
KDFTKYVAYIE [KDM4B_Y31_N29T]	inactive: 0.754	inactive: 1.23	inactive: 0.69	inactive: 0.651	inactive: 0.669	inactive: 0.864
TKYVAYIESQG [KDM4B_Y34_N29T]	inactive: 0.943	inactive: 2.2	inactive: 0.996	inactive: 2.1	inactive: 0.886	inactive: 0.955
TKFVAYIESQG [KDM4B_Y34_N29T_YF]	inactive: 1.47	inactive: 1.19	inactive: 0.977	inactive: 1.21	inactive: 1.39	inactive: 1.55
LYSINYLHFGD [KDM4C_Y201_E206D]	active: 3.94	active: 4.52	active: 4.94	active: 6.72	active: 4.4	active: 3.52
LFSINYLHFGD [KDM4C_Y201_E206D_YF]	inactive: 2.86	inactive: 2.96	active: 3.47	active: 3.75	active: 3.3	inactive: 3.14
AKFLGYPPPEI [KDR_Y357_YF]	inactive: 1.34	inactive: 1.17	inactive: 1.45	inactive: 1.37	inactive: 1.35	inactive: 1.33
ADYYDYGHGLS [KHDRBS3_Y304]	inactive: 0.969	inactive: 0.642	inactive: 0.949	inactive: 0.699	inactive: 0.912	inactive: 0.866
ADYYDYGRGLS [KHDRBS3_Y304_H306R]	inactive: 0.819	inactive: 0.788	inactive: 0.8	inactive: 0.69	inactive: 0.69	inactive: 0.82
ADFFDYGHGLS [KHDRBS3_Y304_YF]	inactive: 0.847	inactive: 0.879	inactive: 0.985	inactive: 0.756	inactive: 0.843	inactive: 1.2
FPRAWYRRSIA [KIAA1109_Y4272]	inactive: 0.424	inactive: 0.222	inactive: 0.288	inactive: 0.204	inactive: 0.164	inactive: 0.242
TKEPKYGGAGS [KIAA1210_Y1615_E1616G]	inactive: 0.533	inactive: 0.557	inactive: 0.494	inactive: 0.46	inactive: 0.541	inactive: 0.535
QSSEGYDLGDR [KIAA1210_Y564_G565D]	inactive: 0.597	inactive: 0.578	inactive: 0.706	inactive: 0.557	inactive: 0.563	inactive: 0.607
NRSSLYLVAGP [KIAA1614_Y1083]	inactive: 1.13	inactive: 0.956	inactive: 0.947	inactive: 2.31	inactive: 0.852	inactive: 1.18
TLMNAYSSCSH [KIF11_Y231_R234C]	inactive: 0.86	inactive: 0.916	inactive: 0.956	inactive: 0.856	inactive: 0.717	inactive: 0.973
TLMNAYSSRCH [KIF11_Y231_S235C]	inactive: 0.644	inactive: 0.807	inactive: 0.649	inactive: 0.693	inactive: 0.768	inactive: 0.85
